According to article PMC6779278:
These are yes or no findings as the source states them, for the method shown. For some of these results: Binding seen in cells or lysates may run through a third protein. Some results given as binding are weak or reduced against the parent protein; the word gives no strength. Tags and fused reporters may be left off the sequences shown.

By UniProt entry, the sequences of proteins in these tests, tags left out. Where a name states a change or a piece, a line headed by the entry shows the natural chain unless it says otherwise. Residues count along the entry.
UniProt Q9VEN2: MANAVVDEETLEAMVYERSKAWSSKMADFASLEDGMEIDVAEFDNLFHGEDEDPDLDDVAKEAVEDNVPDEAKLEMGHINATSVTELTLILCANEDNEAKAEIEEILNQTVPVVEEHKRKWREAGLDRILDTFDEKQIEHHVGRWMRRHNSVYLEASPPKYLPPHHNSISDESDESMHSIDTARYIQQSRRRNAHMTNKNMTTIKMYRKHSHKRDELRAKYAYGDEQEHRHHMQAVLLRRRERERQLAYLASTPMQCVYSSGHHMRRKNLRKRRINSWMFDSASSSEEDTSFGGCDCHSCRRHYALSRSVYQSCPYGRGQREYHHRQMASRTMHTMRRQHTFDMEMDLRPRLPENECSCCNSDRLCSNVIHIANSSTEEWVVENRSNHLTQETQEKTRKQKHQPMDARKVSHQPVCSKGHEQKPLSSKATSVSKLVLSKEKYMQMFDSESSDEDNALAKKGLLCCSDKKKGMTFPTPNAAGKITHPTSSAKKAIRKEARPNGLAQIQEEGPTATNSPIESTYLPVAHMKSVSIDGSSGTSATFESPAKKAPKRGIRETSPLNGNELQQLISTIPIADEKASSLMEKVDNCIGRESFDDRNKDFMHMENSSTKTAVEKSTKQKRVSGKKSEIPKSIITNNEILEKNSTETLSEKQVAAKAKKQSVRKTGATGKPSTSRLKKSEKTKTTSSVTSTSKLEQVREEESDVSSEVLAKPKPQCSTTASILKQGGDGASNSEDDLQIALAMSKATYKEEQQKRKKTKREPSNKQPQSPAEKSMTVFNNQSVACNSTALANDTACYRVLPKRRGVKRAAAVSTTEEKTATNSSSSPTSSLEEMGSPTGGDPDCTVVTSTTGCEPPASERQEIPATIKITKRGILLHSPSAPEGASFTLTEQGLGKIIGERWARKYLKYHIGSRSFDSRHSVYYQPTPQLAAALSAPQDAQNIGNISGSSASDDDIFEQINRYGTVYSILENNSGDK
CAL1 C-terminus (amino acids 680-979), yeast two-hybrid fusion (pMM6): residues 680-979 of Q9VEN2
UniProt Q9V6Q2: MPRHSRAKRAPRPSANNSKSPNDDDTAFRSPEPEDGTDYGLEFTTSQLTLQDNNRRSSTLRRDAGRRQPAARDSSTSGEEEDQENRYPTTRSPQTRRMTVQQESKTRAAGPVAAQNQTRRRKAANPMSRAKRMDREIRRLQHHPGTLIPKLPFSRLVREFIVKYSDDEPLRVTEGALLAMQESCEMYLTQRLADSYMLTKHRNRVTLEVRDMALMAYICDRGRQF

T1: GFP-Zw10 (Drosophila) (UniProt Q9W4X9)
T1 sequence: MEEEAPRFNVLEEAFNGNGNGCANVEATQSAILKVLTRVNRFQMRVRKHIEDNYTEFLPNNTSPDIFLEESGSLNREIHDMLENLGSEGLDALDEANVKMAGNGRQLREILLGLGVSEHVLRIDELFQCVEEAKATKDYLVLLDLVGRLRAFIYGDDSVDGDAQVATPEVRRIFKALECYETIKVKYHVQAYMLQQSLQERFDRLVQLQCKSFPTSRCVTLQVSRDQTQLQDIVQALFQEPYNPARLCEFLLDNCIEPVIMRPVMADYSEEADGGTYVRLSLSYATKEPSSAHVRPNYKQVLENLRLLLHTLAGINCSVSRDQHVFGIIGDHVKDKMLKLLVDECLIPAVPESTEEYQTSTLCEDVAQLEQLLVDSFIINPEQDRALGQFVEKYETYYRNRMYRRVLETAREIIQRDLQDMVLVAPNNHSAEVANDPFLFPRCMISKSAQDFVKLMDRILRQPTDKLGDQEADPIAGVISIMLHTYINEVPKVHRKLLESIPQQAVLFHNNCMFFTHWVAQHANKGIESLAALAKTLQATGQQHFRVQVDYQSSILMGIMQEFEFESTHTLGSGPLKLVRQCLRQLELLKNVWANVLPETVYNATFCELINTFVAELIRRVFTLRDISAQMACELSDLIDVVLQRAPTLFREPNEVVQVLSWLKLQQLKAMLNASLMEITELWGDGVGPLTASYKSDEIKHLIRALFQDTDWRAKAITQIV

T2: GST-Zw10 (Drosophila) (UniProt Q9W4X9)
T2 sequence: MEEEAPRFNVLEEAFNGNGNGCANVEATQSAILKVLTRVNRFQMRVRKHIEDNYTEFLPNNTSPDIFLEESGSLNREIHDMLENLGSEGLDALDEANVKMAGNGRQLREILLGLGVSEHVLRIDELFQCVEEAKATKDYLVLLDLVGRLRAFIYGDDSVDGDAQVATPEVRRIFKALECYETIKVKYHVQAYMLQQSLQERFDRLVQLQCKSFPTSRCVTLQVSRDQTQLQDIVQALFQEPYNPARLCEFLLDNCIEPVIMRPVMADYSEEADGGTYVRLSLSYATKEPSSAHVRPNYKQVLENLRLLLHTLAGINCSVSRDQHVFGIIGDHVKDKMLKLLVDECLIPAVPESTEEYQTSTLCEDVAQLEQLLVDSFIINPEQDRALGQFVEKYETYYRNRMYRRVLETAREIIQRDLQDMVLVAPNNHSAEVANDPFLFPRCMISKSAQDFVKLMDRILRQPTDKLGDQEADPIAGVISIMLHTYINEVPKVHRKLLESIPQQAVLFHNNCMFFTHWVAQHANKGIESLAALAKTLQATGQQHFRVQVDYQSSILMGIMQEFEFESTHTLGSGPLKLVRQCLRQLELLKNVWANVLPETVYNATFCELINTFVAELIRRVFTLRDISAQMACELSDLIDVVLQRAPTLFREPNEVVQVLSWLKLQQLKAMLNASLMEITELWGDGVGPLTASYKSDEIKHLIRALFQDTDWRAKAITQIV


Assays:
GFP-Zw10 (Drosophila) = target: T1, GFP-Zw10 (Drosophila); assay: co-IP; GFP-Zw10 isolated from S2 cell lysate with GBP beads; 20 mM Tris-HCl pH 7.5, 1% NP-40, 250 mM NaCl; 2 h at 4°C; immunoblot
GST-Zw10 (Drosophila) = target: T2, GST-Zw10 (Drosophila); assay: pull-down; GST or GST-Zw10 coupled beads with 100 ng His-Sumo-CAL1 or His-Sumo-CENP-A; 20 mM Tris pH 8, 150 mM NaCl, 0.5 mM EDTA, 10% glycerol, 0.1% NP-40, 1 mM DTT; 1 h at 4°C; immunoblot; both purified
[1] = target: CAL1 C-terminus (amino acids 680-979), yeast two-hybrid fusion (pMM6) (Drosophila melanogaster) (UniProt Q9VEN2); assay: two-hybrid; pMM5 and pMM6 fusion constructs in yeast strain SGY37VIII; CAL1 or CENP-A as bait, SAC proteins as prey; beta-galactosidase activity with X-Gal (blue colour)
[2] = target: CAL1, full-length, yeast two-hybrid fusion (pMM6) (Drosophila melanogaster) (UniProt Q9VEN2); assay: as above
[3] = target: CENP-A, yeast two-hybrid fusion (pMM6) (Drosophila melanogaster) (UniProt Q9V6Q2); assay: as above

Row | binding [1] | binding [2] | Molecule | further results
1 | – | – | CAL1 in lysate of GFP-Zw10 expressing S2 cells (from UniProt Q9VEN2 1-979) | binding (GFP-Zw10 (Drosophila)): binds
2 | – | – | His-Sumo-CAL1 (from UniProt Q9VEN2 1-979) | binding (GST-Zw10 (Drosophila)): binds
3 | binds | binds | Zw10, full-length, yeast two-hybrid fusion (pMM5) (protein, UniProt Q9W4X9 1-721) MEEEAPRFNVLEEAFNGNGNGCANVEATQSAILKVLTRVNRFQMRVRKHIEDNYTEFLPNNTSPDIFLEESGSLNREIHDMLENLGSEGLDALDEANVKMAGNGRQLREILLGLGVSEHVLRIDELFQCVEEAKATKDYLVLLDLVGRLRAFIYGDDSVDGDAQVATPEVRRIFKALECYETIKVKYHVQAYMLQQSLQERFDRLVQLQCKSFPTSRCVTLQVSRDQTQLQDIVQALFQEPYNPARLCEFLLDNCIEPVIMRPVMADYSEEADGGTYVRLSLSYATKEPSSAHVRPNYKQVLENLRLLLHTLAGINCSVSRDQHVFGIIGDHVKDKMLKLLVDECLIPAVPESTEEYQTSTLCEDVAQLEQLLVDSFIINPEQDRALGQFVEKYETYYRNRMYRRVLETAREIIQRDLQDMVLVAPNNHSAEVANDPFLFPRCMISKSAQDFVKLMDRILRQPTDKLGDQEADPIAGVISIMLHTYINEVPKVHRKLLESIPQQAVLFHNNCMFFTHWVAQHANKGIESLAALAKTLQATGQQHFRVQVDYQSSILMGIMQEFEFESTHTLGSGPLKLVRQCLRQLELLKNVWANVLPETVYNATFCELINTFVAELIRRVFTLRDISAQMACELSDLIDVVLQRAPTLFREPNEVVQVLSWLKLQQLKAMLNASLMEITELWGDGVGPLTASYKSDEIKHLIRALFQDTDWRAKAITQIV | –
4 | – | no binding | Zwilch, yeast two-hybrid fusion (pMM5) (protein, UniProt Q9VA00 1-641) MSASANLANVYAELMRRCGESYTITYGAPPTYLVSMVGAAEAGKKIVLVFKEDRNGAVARLRTTPTRAAPKKEGSADLDLTGSPLKDDCLVDAIADLSIDLQLDHSNPWKLEEEYQRGIPVDKARSIVCSEFLQLAEGLGSVWFLCDGSDLGQTQLLQYEFNPTHFSRGILSYQGVRPAYLVTSQALVRHHGKTPDETLIENSYQVNPHMRLRCSWTSSAALPLLVNLNDCDVALNHTFRVGDCGPLTQDFMNQLRILVYIREDIVSYHTDVKQGVSRDPTYRCGSGIDMDELRESINQTMTDVSGLIGRYSISNAEFDIEDVVQRAKVRQLTDLTDKLWELLKCCHSYKDLKIAFSMLFQCAARCNIVNTPTNKNRLAKIITELANRRLAMPCLSGAEPLELLLEIGLEKLYKDYEFIYTESKMCSTNLLKDDSSGASMDDGSPQNLPQLRKSLHNAVRGDPTPGAGMRKTLLHHHGAVNSRSTKYAGSDDDAGFKNSHFDEHESTERISKLFQIHCTLEHLLMMHIHLNLANVYNDVCSELLKKPPKLVESIDDQLSDVMDIRLSAHYVRDHLDGKDPYSRHITMRSHNKFRELKTTFYFNSENICPPNLAQCFQCDDKEMVKERTYHSWIYHKIRSLK | binding [3]: no binding
5 | binds | – | Zw10 C-terminus (amino acids 482-721), yeast two-hybrid fusion (pMM5) (domain or fragment, UniProt Q9W4X9 482-721) MLHTYINEVPKVHRKLLESIPQQAVLFHNNCMFFTHWVAQHANKGIESLAALAKTLQATGQQHFRVQVDYQSSILMGIMQEFEFESTHTLGSGPLKLVRQCLRQLELLKNVWANVLPETVYNATFCELINTFVAELIRRVFTLRDISAQMACELSDLIDVVLQRAPTLFREPNEVVQVLSWLKLQQLKAMLNASLMEITELWGDGVGPLTASYKSDEIKHLIRALFQDTDWRAKAITQIV | –
